# Results reported in the supplement of paper PMC8728848.
# The other results are listed elsewhere or left out.
# B1: CIH1 (Colletotrichum higginsianum) (protein)
# chain: LPQATPTTPTPTSASAAATISATSSPTCSPGPVIDYTVVSGDTLTIISQRFSSGICNIADASGITNPNFLSLGQVLQVPTYVCTPDNTSCLAKEGSDTCVEGGPATHTIVAGDTFFLVAQSLGLDVNALLAANEGVDPLLLQIGDVINIPVC
# Legend:
# Assay in all cases: glycan array binding signal (z-score within array); higher = stronger binding
# Settings in all cases: glycan notation: IUPAC condensed, linker removed
# [1] = molecular target: Fuc(a1-2)Gal(b1-4)GlcNAc(b1-3)Gal(b1-4)GlcNAc(b1-3)Gal(b1-4)GlcNAc
# Method in brief: (§1)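 The binding signal is a Z-score computed within each array. Data were drawn from 3228 arrays in the Consortium for Functional Glycomics database, restricted to those with a known protein sequence. Scores were averaged over arrays of the same protein sequence at different concentrations or buffers, and over linkers, and negative values can be taken as non-binding.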
# [2] = molecular target: Fuc(a1-2)Gal(b1-4)GlcNAc(b1-3)GalNAc
# Method in brief: as §1
# [3] = molecular target: Fuc(a1-2)Gal(b1-4)GlcNAc(b1-3)[Fuc(a1-2)Gal(b1-4)GlcNAc(b1-6)]GalNAc
# Method in brief: as §1
# [4] = molecular target: Fuc(a1-2)Gal(b1-4)GlcNAc(b1-6)GalNAc
# Method in brief: as §1
# [5] = molecular target: Fuc(a1-2)Gal(b1-4)GlcNAc6S
# Method in brief: as §1
# [6] = molecular target: Fuc(a1-2)Gal(b1-4)[Fuc(a1-3)]GlcNAc
# Method in brief: as §1
# [7] = molecular target: Fuc(a1-2)Gal(b1-4)[Fuc(a1-3)]GlcNAc(b1-2)Man(a1-3)[Fuc(a1-2)Gal(b1-4)[Fuc(a1-3)]GlcNAc(b1-2)Man(a1-6)]Man(b1-4)GlcNAc(b1-4)GlcNAc
# Method in brief: as §1
# [8] = molecular target: Fuc(a1-2)Gal(b1-4)[Fuc(a1-3)]GlcNAc(b1-2)Man(a1-6)[Fuc(a1-2)Gal(b1-4)[Fuc(a1-3)]GlcNAc(b1-2)Man(a1-3)]Man(b1-4)GlcNAc(b1-4)[Fuc(a1-6)]GlcNAc
# Method in brief: as §1
# [9] = molecular target: Fuc(a1-2)Gal(b1-4)[Fuc(a1-3)]GlcNAc(b1-2)[Fuc(a1-2)Gal(b1-4)[Fuc(a1-3)]GlcNAc(b1-4)]Man(a1-3)[Fuc(a1-2)Gal(b1-4)[Fuc(a1-3)]GlcNAc(b1-2)Man(a1-6)]Man(b1-4)GlcNAc(b1-4)GlcNAc
# Method in brief: as §1
# [10] = molecular target: Fuc(a1-2)Gal(b1-4)[Fuc(a1-3)]GlcNAc(b1-3)Gal(b1-4)[Fuc(a1-3)]GlcNAc
# Method in brief: as §1
# [11] = molecular target: Fuc(a1-2)Gal(b1-4)[Fuc(a1-3)]GlcNAc(b1-3)Gal(b1-4)[Fuc(a1-3)]GlcNAc(b1-3)Gal(b1-4)[Fuc(a1-3)]GlcNAc
# Method in brief: as §1
# [12] = molecular target: Fuc(a1-2)Gal(b1-4)[Fuc(a1-3)]GlcNAc(b1-3)GalNAc
# Method in brief: as §1
# [13] = molecular target: Fuc(a1-2)Gal(b1-4)[Fuc(a1-3)]GlcNAc(b1-3)[Neu5Ac(a2-6)Gal(b1-4)GlcNAc(b1-6)]Gal(b1-4)Glc
# Method in brief: as §1
# [14] = molecular target: Fuc(a1-2)Gal6S(b1-3)GlcNAc
# Method in brief: as §1
# [15] = molecular target: Fuc(a1-2)Gal6S(b1-3)GlcNAc6S
# Method in brief: as §1
# [16] = molecular target: Fuc(a1-2)Gal6S(b1-4)Glc
# Method in brief: as §1
# [17] = molecular target: Fuc(a1-2)Gal6S(b1-4)Glc6S
# Method in brief: as §1
# [18] = molecular target: Fuc(a1-2)Gal6S(b1-4)GlcNAc
# Method in brief: as §1
# [19] = molecular target: Fuc(a1-2)[Gal(a1-3)]Gal
# Method in brief: as §1
# [20] = molecular target: Fuc(a1-2)[Gal(a1-3)]Gal(b1-3)GalNAc
# Method in brief: as §1
# [21] = molecular target: Fuc(a1-2)[Gal(a1-3)]Gal(b1-3)GlcNAc
# Method in brief: as §1
# [22] = molecular target: Fuc(a1-2)[Gal(a1-3)]Gal(b1-3)GlcNAc(b1-2)Man(a1-3)[Fuc(a1-2)[Gal(a1-3)]Gal(b1-3)GlcNAc(b1-2)Man(a1-6)]Man(b1-4)GlcNAc(b1-4)GlcNAc
# Method in brief: as §1
# [23] = molecular target: Fuc(a1-2)[Gal(a1-3)]Gal(b1-3)GlcNAc(b1-2)Man(a1-3)[Fuc(a1-2)[Gal(a1-3)]Gal(b1-3)GlcNAc(b1-2)Man(a1-6)]Man(b1-4)GlcNAc(b1-4)[Fuc(a1-6)]GlcNAc
# Method in brief: as §1
# [24] = molecular target: Fuc(a1-2)[Gal(a1-3)]Gal(b1-3)GlcNAc(b1-3)GalNAc
# Method in brief: as §1
# [25] = molecular target: Fuc(a1-2)[Gal(a1-3)]Gal(b1-4)Glc
# Method in brief: as §1
# [26] = molecular target: Fuc(a1-2)[Gal(a1-3)]Gal(b1-4)GlcNAc
# Method in brief: as §1
# [27] = molecular target: Fuc(a1-2)[Gal(a1-3)]Gal(b1-4)GlcNAc(b1-2)Man(a1-3)[Fuc(a1-2)[Gal(a1-3)]Gal(b1-4)GlcNAc(b1-2)Man(a1-6)]Man(b1-4)GlcNAc(b1-4)GlcNAc
# Method in brief: as §1
# [28] = molecular target: Fuc(a1-2)[Gal(a1-3)]Gal(b1-4)GlcNAc(b1-2)Man(a1-3)[Fuc(a1-2)[Gal(a1-3)]Gal(b1-4)GlcNAc(b1-2)Man(a1-6)]Man(b1-4)GlcNAc(b1-4)[Fuc(a1-6)]GlcNAc
# Method in brief: as §1
# [29] = molecular target: Fuc(a1-2)[Gal(a1-3)]Gal(b1-4)GlcNAc(b1-3)GalNAc
# Method in brief: as §1
# [30] = molecular target: Fuc(a1-2)[Gal(a1-3)]Gal(b1-4)GlcNAc(b1-6)GalNAc
# Method in brief: as §1
binder,measurement,setting,value
B1,glycan array binding signal (z-score),[1],-0.073
same,glycan array binding signal (z-score),[2],-0.075
same,glycan array binding signal (z-score),[3],-0.075
same,glycan array binding signal (z-score),[4],-0.063
same,glycan array binding signal (z-score),[5],0.014
same,glycan array binding signal (z-score),[6],-0.086
same,glycan array binding signal (z-score),[7],-0.059
same,glycan array binding signal (z-score),[8],-0.048
same,glycan array binding signal (z-score),[9],-0.059
same,glycan array binding signal (z-score),[10],-0.064
same,glycan array binding signal (z-score),[11],-0.051
same,glycan array binding signal (z-score),[12],-0.048
same,glycan array binding signal (z-score),[13],-0.072
same,glycan array binding signal (z-score),[14],-0.072
same,glycan array binding signal (z-score),[15],-0.048
same,glycan array binding signal (z-score),[16],-0.046
same,glycan array binding signal (z-score),[17],-0.046
same,glycan array binding signal (z-score),[18],-0.056
same,glycan array binding signal (z-score),[19],-0.066
same,glycan array binding signal (z-score),[20],-0.072
same,glycan array binding signal (z-score),[21],-0.071
same,glycan array binding signal (z-score),[22],-0.006
same,glycan array binding signal (z-score),[23],-0.082
same,glycan array binding signal (z-score),[24],-0.061
same,glycan array binding signal (z-score),[25],-0.062
same,glycan array binding signal (z-score),[26],-0.067
same,glycan array binding signal (z-score),[27],-0.049
same,glycan array binding signal (z-score),[28],-0.063
same,glycan array binding signal (z-score),[29],-0.064
same,glycan array binding signal (z-score),[30],-0.081
